Measured values published in patent US20250084177A1, “ANTI-CD98 ANTIBODIES AND USES THEREOF” (HUAHUI HEALTH LTD., priority 2021, published 2025).

Tests used:
Raji tumors = experiment: Raji xenograft tumor model; format: in vivo, mouse; conditions: NOD SCID mice, 10 mg/kg
Method: (§1) For mouse tumor models, 6-8-week old mice were inoculated subcutaneously with various tumor cells (in 100 μL DPBS or medium). Except for MDA-MB-231-LN cells inoculated on the breast fat pad of female mice, all other cells were inoculated on the right flank. For xenograft tumor models, based on similar mean tumor volumes, mice were randomized into groups (n=2-6/group) and received intraperitoneal injection of various antibodies. For syngeneic tumor models, mice were randomized into groups (n=3-10/group) after tumor cells inoculation (1×10^5 cells in DPBS) and received intraperitoneal injection of various antibodies. Tumor volume was measured with an electronic caliper and calculated using the modified ellipsoid formula ½×(length×width2). When the tumor reached 2 cm in length or when weakness was observed, the mice were sacrificed.

A-431 tumors = experiment: A-431 xenograft tumor model; format: in vivo, mouse; conditions: CB-17 SCID mice, 15 mg/kg
Method: as §1

EL4-hCD98 tumors = experiment: EL4-hCD98 syngeneic tumors in CD98 humanized mice; format: in vivo, mouse; conditions: 15 mg/kg
Method: as §1
F or depletion of CD4+ or CD8+ T cells, tumor-bearing CD98humanized mice were injected with 15 mg/kg of anti-CD4 antibody (clone GK1.5, BioXCell) or 10 mg/kg of anti-CD8α antibody (clone 2.43, BioXCell) one day before S1-F4 treatment and once every 3-5 days. For depletion of NK cells, mice were injected with 2.5 mg/kg anti-Asialo-GM1 polyclonal antibody (Poly21460, Biolegend) one day before S1-F4 treatment and once every six days. […]

B16F10-hCD98 tumors = experiment: B16F10-hCD98 syngeneic tumors in CD98 humanized mice; format: in vivo, mouse; conditions: 15 mg/kg
Method: as §1

[1] = Immunofluorescence staining of antibody enrichment in mouse kidneys; format: in vivo; conditions: CD98 humanized mice, 15 mg/kg, two days
From the text: For detecting enrichment of antibodies in mice kidneys, mice were sacrificed 2-3 days after injection with various antibodies. Then mice kidneys were harvested to prepare frozen sections. Kidney sections were stained with a goat polyclonal anti-Human IgG Fc FITC (Thermo Fisher Scientific). The CD98 expression on the surface of kidney cells was detected by FITC with a Vectra Polaris instrument (PerkinElmer).

MC38-hCD98 tumors = experiment: MC38-hCD98 syngeneic tumors in CD98 humanized mice; format: in vivo, mouse; conditions: 20 mg/kg
Method: as §1

[2] = Pharmacokinetics in CD98 humanized mice; format: in vivo, mouse; conditions: serum, single dose 15 mg/kg i.p.
Method: 6-8-week old C57BL/6 or CD98 humanized mice were used in this experiment. Blood was collected at different timepoints after a single intraperitoneal (i.p.) injection of analyte antibodies. Antibody concentrations in serum were measured with a human IgG ELISA quantitation kit (Bethyl Laboratories). Then antibody serum concentration was calculated and plotted in Graphpad Prism 6. The evaluation of the PK data was conducted with WinNonlin software.

[3] = biological target: T1, hCD98 ECD-His6-Avi-Biotin (Homo sapiens, UniProt P08195); experiment: ELISA binding to hCD98 ECD at pH 6.5 and pH 7.4
T1 construct: ECD of human or murine CD98 were fused with His6-Avi tag and biotinylated by BirA ligase; made in house; host or cells: FreeStyle 293F cells
T1 sequence (P08195 105-529 limits assumed): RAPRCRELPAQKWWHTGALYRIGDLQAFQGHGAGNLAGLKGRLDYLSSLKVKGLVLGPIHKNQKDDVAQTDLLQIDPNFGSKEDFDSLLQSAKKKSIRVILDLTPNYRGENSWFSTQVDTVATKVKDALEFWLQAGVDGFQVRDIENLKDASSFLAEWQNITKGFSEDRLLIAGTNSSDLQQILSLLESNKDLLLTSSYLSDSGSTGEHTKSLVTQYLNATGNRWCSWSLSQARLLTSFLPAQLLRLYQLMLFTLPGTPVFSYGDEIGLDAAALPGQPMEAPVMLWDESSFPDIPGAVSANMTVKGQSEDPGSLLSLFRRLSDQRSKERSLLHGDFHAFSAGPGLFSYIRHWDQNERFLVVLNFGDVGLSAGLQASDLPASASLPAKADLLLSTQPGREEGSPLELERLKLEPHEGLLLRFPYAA
Method: For the ELISA-based analysis of antibody binding with antigen, biotinylated protein antigens were captured with streptavidin (Sigma-Aldrich) coated 96-well plates (Nunc, MaxiSorp™). Then, serially diluted antibodies were added, and detected by adding an HRP-labeled goat polyclonal anti-Human IgG Fc (Thermo Fisher Scientific).

A-431 cells = experiment: FACS binding to A-431 cells at pH 6.5 and pH 7.4; parameters: species or system human
From the text: For examining CD98 expression in tumor cell lines: tumor cells were stained with anti-CD98 antibodies and subsequently stained with a goat polyclonal anti-Human IgG Fc FITC (Thermo Fisher Scientific). The CD98 expression on tumor cell lines were detected by FITC.

B1: HN2-G9: anti-hCD98 antibody from non-immune phage display scFv library; VH SEQ ID NO:63, VL SEQ ID NO:68 (antibody, V domains shown)
VH: QVQLVQSGAEVKKPGSSVKVSCKASGYTFTSYYMHWVRQAPGQGLEWMGIINPSGGSTSYAQKFQGRVTMTRDTSTSTVYMELSSLRSEDTAVYFCARGYCSGGRCYSDFQHWGQGTLVTVSS
VL: DIVMTQSPDSLAVSLGERATINCKSSQSVLYSSNNKNYLAWYQQKPGQPPKLLIYWASTRESGVPDRFSGSGSGTDFTLTISSLQAEDVAVYYCQQYYNTPITFGQGTRLEIK
modifications: HN2-G9 VH amino acid seq; HN2-G9 VL amino acid seq
Raji tumors
  antitumor activity: comparable antitumor activity

B2: H15L54: pH-dependent anti-hCD98 antibody derived from S1-F4 VH Y97E sub-libraries; VH SEQ ID NO:23, VL SEQ ID NO:28 (antibody, V domains shown)
VH: QVQLVQSGAEVKKPGASVKVSCKASGYTFTSYQMHWVRQAPGQGLEWMGIINDKHGSTSYAQKFQGRVTMTRDTSTSTVYMELSSLRSEDTAVYYCARGYEDSNTHQHPIFFDIWGQGTMVTVSS
VL: DIVMTQSPDSLAVSLGERATINCKSSQSVLYRHNNKNYLAWYQQKPGQPPKLLIYWASTSESGVPDRFSGSGSGTDFTLTISSLQAEDVAVYYCQQYYNTPITFGQGTRLEIK
modifications: H15L54 VH amino acid seq; H15L54 VL amino acid seq
A-431 tumors
  antitumor activity: significant antitumor activity
EL4-hCD98 tumors
  antitumor activity: significant antitumor activity
B16F10-hCD98 tumors
  antitumor activity: significant antitumor activity
[1]
  antibody enrichment in kidneys (FITC signal): only a very weak FITC signal
MC38-hCD98 tumors
  antitumor activity: significant antitumor activity
[2]
  half-life (t½): ~217.1 h
[3]; EC50 ratio pH 7.4/6.5
  binding pH-dependence relative to S1-F4 Y97E: about 14 times
[3]; pH 6.5
  binding activity at pH 6.5 relative to S1-F4 Y97E: about 7 times
A-431 cells
  binding to A-431 cells at pH 6.5 versus pH 7.4: significantly stronger at pH 6.5 than at pH 7.4

B3: H15L35: pH-dependent anti-hCD98 antibody; VH SEQ ID NO:53, VL SEQ ID NO:58 (antibody, V domains shown)
VH: QVQLVQSGAEVKKPGASVKVSCKASGYTFTSYQMHWVRQAPGQGLEWMGIINDKHGSTSYAQKFQGRVTMTRDTSTSTVYMELSSLRSEDTAVYYCARGYEDSNTHQHPIFFDIWGQGTMVTVSS
VL: DIVMTQSPDSLAVSLGERATINCKSSQSVLYRHNNNNYLAWYQQKPGQPPKLLIYWASTSESGVPDRFSGSGSGTDFTLTISSLQAEDVAVYYCQQYYNTPITFGQGTRLEIK
modifications: H15L35 VH amino acid seq; H15L35 VL amino acid seq
A-431 cells
  binding to A-431 cells at pH 6.5 versus pH 7.4: pH-dependent binding

B4: H15L1: pH-dependent anti-hCD98 antibody; VH SEQ ID NO:43, VL SEQ ID NO:48 (antibody, V domains shown)
VH: QVQLVQSGAEVKKPGASVKVSCKASGYTFTSYQMHWVRQAPGQGLEWMGIINDKHGSTSYAQKFQGRVTMTRDTSTSTVYMELSSLRSEDTAVYYCARGYEDSNTHQHPIFFDIWGQGTMVTVSS
VL: DIVMTQSPDSLAVSLGERATINCKSSQSVLYRHNNKNYLAWYQQKPGQPPKLLIYWASTRESGVPDRFSGSGSGTDFTLTISSLQAEDVAVYYCQQYYNTPITFGQGTRLEIK
modifications: H15L1 VH amino acid seq; H15L1 VL amino acid seq
A-431 cells
  binding to A-431 cells at pH 6.5 versus pH 7.4: pH-dependent binding

B5: Ab8332: pH-dependent anti-hCD98 antibody; VH SEQ ID NO:33, VL SEQ ID NO:38 (antibody, V domains shown)
VH: QVQLVQSGAEVKKPGASVKVSCKASGYTFTSYQMHWVRQAPGQGLEWMGIINPSGGSTSYAQKFQGRVTMTRDTSTSTVYMELSSLRSEDTAVYYCARGYEDSNTHQHPIFFDIWGQGTMVTVSS
VL: DIVMTQSPDSLAVSLGERATINCKSSQSVLYSSNNKNYLAWYQQKPGQPPKLLIYWASTRESGVPDRFSGSGSGTDFTLTISSLQAEDVAVYYCQQYYNTPITFGQGTRLEIK
modifications: 8332 VH amino acid seq; 8332 VL amino acid seq
EL4-hCD98 tumors
  antitumor activity: comparable inhibitory effect of tumor growth as S1-F4
